Data on one molecule can be found in PubChem BioAssay (NCI).

Structures are written as SMILES.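 Assay format: 96-well plates, 48-hour exposure. GI50: concentration for 50% inhibition of growth. TGI denotes the concentration required for complete inhibition of growth.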

The subject of the assay is NCI-H322M lung. The experiment in a line: NCI tumour cell line growth inhibition, 48 h.

In the case of `COc1ccc([C@@H]2[C@@H](O)C(=O)N2c2cc(OC)c(OC)c(OC)c2)cc1Cl`, the GI50 is 0.0232 µM and the TGI is above 100 µM.
